Target: GPCMV gB (glycoprotein B of Guinea Pig CMV strain V545/82) (guinea pig CMV (GPCMV))
Assay: cell-based or functional assay

B1: 2M16 human anti-CMV antibody (antibody)
heavy: QVQLVDSGGGMVQPGRSLRLSCSASGLTFSNYGMHWVRQAPGKGLEWVAVISSDGSNEHYADSVKGRFTISRDNFNNMLYLQMNSLRAEDTAVYYSARDGRCPDVNCYSGLIDYWGQGTLVTVSSASTKGPSVFPLAPSSKSTSGGTAALGCLVKDYFPEPVTVSWNSGALTSGVHTFPAVLQSSGLYSLSSVVTVPSSSLGTQTYICNVNHKPSNTKVDKRV[human IgG1 Fc cut from this listing]
light: EIVLTQSPATLSLSPGERATLSCRASQSVGRYLAWYQQKGGQAPRLLIYDASNRATGIPARFSGSGSGTDFTLTIDSLEPEDFAVYYCQQRSNWPPLTFGGGSKVEIKRTVAAPSVFIFPPSDEQLKSGTASVVCLLNNFYPREAKVQWKVDNALQSGNSQESVTEQDSKDSTYSLSSTLTLSKADYEKHKVYACEVTHQGLSSPVTKSFNRGEC
  neutralization of GPCMV V545/82 entry into JH4 cells (highest concentration tested, no effect): > 300 µg/mL

From patent publication US20120263734A1 (THERACLONE SCIENCES, published 2012)
